# In the RNAGym collection of RNA variant scans (doi:10.1073/pnas.2313332121):
# Variants at the floor of the assay are shown more often than the library holds them.
# B1: TPR 5TU (parent)
# chain: GGAUCUUCUCGAUCUAACAAAAAAGACAAAUCUGCCACAAAGCUUGAGAGCAUCUUCGGAUGCAGAGGCGGCAGCCUUCGGUGGCGCGAUAGCGCCAACGUUCUCAACUAUGACACGCAAAACGCGUGCUCCGUUGAAUGGAGUUUAUCAUG
# Variants of: B1
# Experiment: polymerase ribozyme fitness, log enrichment relative to wild type (log ratio); higher = more active; in vitro selection for triplet polymerase activity
# How it was run: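 The heterodimeric triplet polymerase ribozyme's subunits were each mutagenized into PCR-built libraries and transcribed. Every library was selected once, in triplicate, by annealing with a biotinylated primer, the partner subunit and triplets, incubating frozen at −7 °C, gel-excising extended constructs, capturing on streptavidin beads and running RT-PCR. Input and output libraries were Illumina-sequenced, with genotypes kept only at ≥10 input reads and ≥1 read per output. Fitness, from inverse-variance-weighted replicate averages, is the base-2 logarithm of genotype enrichment over wild-type enrichment.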
row,Variant,polymerase ribozyme fitness (log ratio)
1,C5A C54U A73G A119G G136A,-0.371
2,C5A C57A A119U A137G U146G,-2.37
3,C5A C57G C75U G86A A91C,-4.01
4,C5A C57U G59C C96G U101G,-0.41
5,C5A C75G C79A U82G G86A A106C C149G,≤ -4.2
6,C5A C85U A97U G143A,-1.87
7,C5A C87A C149A,≤ -4.2
8,C5A C96A A97G C108U,≤ -4.2
9,C5A C99U,-0.267
10,C5A G11A G84A C95A C103U C116U,-1.5
11,C5A G11C C85U A119C C131G G141C,0.451
12,C5A G25C A41C C85U A89C A115G C132G U146C U148G,≤ -4.2
13,C5A G42C C85U G112A,≤ -4.2
14,C5A G46A U53A C93G U101C U109G G140C,≤ -4.2
15,C5A G46C A66U C93U A122G,≤ -4.2
16,C5A G46C U90A,≤ -4.2
17,C5A G58A G86U,-1.52
18,C5A G59A C76U U77A G84A C118G C132G,≤ -4.2
19,C5A G62A G74U A89U C93G A110G A120U C123U,≤ -4.2
20,C5A G65C G74U C85G,≤ -4.2
21,C5A G68C G80C C85G,≤ -4.2

row,Variant,polymerase ribozyme fitness (log ratio)
1,C5A G80A G83U G124C U139C,≤ -4.2
2,C5A U6A C14G C27A G42C U53G A66C C75G G84U A142G,≤ -4.2
3,C5A U6G G67C G68A C87A U101A A106U C108G C149G,≤ -4.2
4,C5A U6G U82C C95G,-2.28
5,C5A U7C A26C U44A G58U A73C C87A A121C,≤ -4.2
6,C5A U9C C10G A26U U90G A137G A142U,≤ -4.2
7,C5A U13C C38U A121G U127C,-4.07
8,C5A U33C C38U G48A C57A G59C,≤ -4.2
9,C5A U44G,≤ -4.2
10,C5A U55C C87G,≤ -4.2
11,C5G A12C U61A C95U C125G A142C,≤ -4.2
12,C5G A12U A28U U44G G94A G117U A147G,≤ -4.2
13,C5G A16C A21C A22C A73G C96A A113U,≤ -4.2
14,C5G A16C A29G G71A C99A C125U G140U,≤ -4.2
15,C5G A16G A20U U61A C75U C96A A119U G133C,≤ -4.2
16,C5G A16G A21U C93U U101G A110C C116U G124C,≤ -4.2
17,C5G A16G A52C G81A G84U U101G C105A C118U,≤ -4.2
18,C5G A16G A107C,≤ -4.2
19,C5G A16G C96A U148A,≤ -4.2
20,C5G A17C A26U A37C A52C C93A A106G,≤ -4.2
21,C5G A17G A24C C93G A107G C125A,≤ -4.2

row,Variant,polymerase ribozyme fitness (log ratio)
1,C5G A17G C35A A47C G58U C95U A137C G140A,≤ -4.2
2,C5G A17G G34C C36U G59A C85U A91C A97C U109C,≤ -4.2
3,C5G A19G A24C A40U U55A G83U G86U A115G G140U,≤ -4.2
4,C5G A19U A24U G50C U78C A97G,≤ -4.2
5,C5G A20C A66G U144A,≤ -4.2
6,C5G A20G C75U C87U A119G A142G,-3.16
7,C5G A21C A29U C51A C85U C87U U139G,≤ -4.2
8,C5G A21C C27A C38U C79A C87U,≤ -4.2
9,C5G A21G U44A G83C C103G,≤ -4.2
10,C5G A21U A29U C32U U53A A60G G74U,≤ -4.2
11,C5G A21U C76G G92U C96A A119C A138U,≤ -4.2
12,C5G A21U G58C U78C C87U C96U A115U G141U,≤ -4.2
13,C5G A22G C103G A110U G143C A150G,≤ -4.2
14,C5G A22G U45A C87U A89U C95U U146C,≤ -4.2
15,C5G A23C A52C G83C G117U,≤ -4.2
16,C5G A24C A28G G74A G81U C99G G128C,≤ -4.2
17,C5G A24C A28U A29U G50U G83C G126A U146A,≤ -4.2
18,C5G A24C C27U G86A C96G,≤ -4.2
19,C5G A24G C75U U109A A138G A147C,≤ -4.2
20,C5G A26C C27A A40C,≤ -4.2
21,C5G A26C C27A A40C A66C,≤ -4.2

row,Variant,polymerase ribozyme fitness (log ratio)
1,C5G A26G A41U C43G G50U C54U,≤ -4.2
2,C5G A26G C54U G83A,≤ -4.2
3,C5G A28C A49C G83A A97C C99A,≤ -4.2
4,C5G A28U A29G A49C G50U C96U C123A G152U,≤ -4.2
5,C5G A28U C69A G86A G141C,≤ -4.2
6,C5G A28U G46A A52C U53A G71A C93A C105G C114G G141C,≤ -4.2
7,C5G A28U G83A G124U C125U U144C,≤ -4.2
8,C5G A29C G58U C93U G94A G143U,≤ -4.2
9,C5G A29G C93U C108G G136U,≤ -4.2
10,C5G A29U C54U G59C G86U C132G,≤ -4.2
11,C5G A29U G48C U53G U56A A106C,≤ -4.2
12,C5G A30C A60C C96A C103A C131G,≤ -4.2
13,C5G A30G C36U C75G C95G U127A,≤ -4.2
14,C5G A30U G59A C87G C108U U148A,≤ -4.2
15,C5G A37C C38A C93G C99A G126U,≤ -4.2
16,C5G A37C G86U A120U U146G,≤ -4.2
17,C5G A39C G59C C76A G88C C99A,≤ -4.2
18,C5G A39G U56A A60C C63A G84U G94U U134C,≤ -4.2
19,C5G A39U C57A G59U G83U C103G C116U,≤ -4.2
20,C5G A40C U45A C87G C105A A119G C125A U144A U145C,≤ -4.2
21,C5G A41C G50C U55A C85G,≤ -4.2
